# Source: PubChem BioAssay (NCI)
#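 Where inhibition never reached the appropriate level, the endpoint shown equals the highest concentration tested. Otherwise, values were interpolated linearly from a five-concentration, 48-hour dose response in 96-well plates. GI50: concentration for 50% inhibition of growth. TGI marks complete inhibition of growth.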
# Tested on: NCI-H322M lung
# Assay: DTP human tumour cell line panel, 48 h
Structure (SMILES),GI50 [µM],TGI [µM]
C=CC(=O)Nc1ccc(C(=O)/C=C/c2ccc(N(C)C)cc2)c(O)c1,7.31,22
c1n[nH]cc1-c1nc2ccc3[nH]ncc3c2c2c1CC1(CCOCC1)CC2,15.4,50.3
